The other results are listed elsewhere or left out.
T1: UNK ZnF1-3 (human, UniProt Q9C0B0 31-174)
T1 sequence: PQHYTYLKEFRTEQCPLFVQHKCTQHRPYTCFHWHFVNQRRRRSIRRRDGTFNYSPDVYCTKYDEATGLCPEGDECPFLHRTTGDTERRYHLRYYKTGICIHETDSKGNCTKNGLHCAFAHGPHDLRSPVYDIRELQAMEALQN

B1: chr11:20126016:20126017:+_ENSMUSG00000020149_ENSMUST00000020358|mus_mus|FALSE|FALSE (ssRNA)
RNA: GGGAGUUCUACAGUCCGACGAUCGGGAAAAAAGCCAGGCGUGGCGGCGCACACCUUCAGUCUCAGCACUCAGAGACAGAGCUAGGUGGAUCCCUGAGUUCGAGGCCAGCCUGGUCUACAGAGAGAGUUCCAGGACAGCCAGGGCAACAGAGGAUUGAGCAUCA
B2: chr5:179004091:179004092:+_ENSG00000176783_ENST00000393438|hu_hu|motif|central (ssRNA)
RNA: GGGAGUUCUACAGUCCGACGAUCUUCAUGCUCCUUGCCACCAUCAAGAUCCUGCACAUCCUUAAGGUAGAGGGAAAAAUCGGUUACUCCAACCUGAGAAUCCAAGUCUUCUCCUUUCAAGCAGAGAUUGGCAUCGAGAACAUUCAACAGAGGAUUGAGCAUCA
B3: chr22:19452774:19452775:-_ENSG00000070010_ENST00000399523|hu_hu|hu_hu_hu_mus_False|68_88 (ssRNA)
RNA: GGGAGUUCUACAGUCCGACGAUCCUUCUCAUUGUAGUUGAUAGCAAUCACAUCCCCAGUCGUCAGACAGGCAAAGUUUCUCAAUGCAUUUUCUAAUACCGCUUUAGGGUUGGUAAUAUCCAGGAAGUCUGGGCUCUGAGGCUGCAACAGAGGAUUGAGCAUCA
B4: chr16:8843268:8843269:+_ENSMUSG00000022507_ENSMUST00000023150|perfect_dup|FALSE|FALSE (ssRNA)
RNA: GGGAGUUCUACAGUCCGACGAUCACCAUGCAGAGCUAUGGCUUCCCGGAAGGGUUGCAAAUCAGUCUCUACAGAUGAGCUAGUUUCCGUUGAAGUAGCUCGGUUAGGGGACACUACAGUCAGUCUUGGGGGAGCUCUAGAGUUCAACAGAGGAUUGAGCAUCA
B5: chr1:60041781:60041782:+_ENSMUSG00000041040_ENSMUST00000036540|mus_hu|mus_mus_mus_hu_False|28_28 (ssRNA)
RNA: GGGAGUUCUACAGUCCGACGAUCAAGUUUACAAUAGUAAAGUAAAUGCAGUAGUGGCAAAUUUUCUUUUAUUUUCCUUCACAAAAGAAAAUCUUUAUAACCCAGUCCAAUCCCAGAACAUAGUGAAAGCUAUAAAUUCUGACUCAACAGAGGAUUGAGCAUCA
B6: chr4:115894766:115894767:+_ENSMUSG00000028698_ENSMUST00000030464|mus_hu|mus_mus_mus_hu_True|28_38 (ssRNA)
RNA: GGGAGUUCUACAGUCCGACGAUCUUCCACACGGAAAUGUACUUCGGGUUUUCCAACGGCCAGUACCAGUCCGGCCAAACUACCCGAACAGGGUCCUGUCCUCCUCUUCUCUCCUCCACAACAAAAUGCCCCCGAACUUUCAAGCAACAGAGGAUUGAGCAUCA
B7: chr18:52893488:52893489:-_ENSG00000196628_ENST00000354452|hu_hu|hu_hu_hu_mus_True|18_18 (ssRNA)
RNA: GGGAGUUCUACAGUCCGACGAUCUAUUUAGACCAUUUCCGCGGAGUUAUGGCAUUUACUCAGUGCUGAUAGGUGGAAAAACUACUUCAACAGGGAUUUUUUUUUUCCUUAAUACAUGCCAAGAAUUUGUGGCUGUCAAAACAGCAACAGAGGAUUGAGCAUCA
B8: chr10:10886374:10886375:+_ENSMUSG00000090112_ENSMUST00000044053|mus_mus|FALSE|FALSE (ssRNA)
RNA: GGGAGUUCUACAGUCCGACGAUCAUGUGGGAUAUUGACAUAGUUUAGUUCUGAACGAAGAACAUCAUAGGUAAUGAUAACUAUAUCUUGUUCUGCCAAAAAAUGAGGCUGUAAGAAGCCGUGUUUCUUCACUCCUUGAUAUACCAACAGAGGAUUGAGCAUCA
B9: chr9:56909451:56909452:+_ENSMUSG00000032290_ENSMUST00000034832|mus_hu|FALSE|FALSE (ssRNA)
RNA: GGGAGUUCUACAGUCCGACGAUCCAUAAGUGCACACACACACACACACAGAAUGACAGAAAGGACUGGAAUACACGCCCUACUUAUAAACGUGCUUGGCACUCAGGACGAUCUCUAGAAUAUGUAACUUGGUCAAGCUCUCUGCAACAGAGGAUUGAGCAUCA
B10: chr11:118025658:118025659:-_ENSMUSG00000017132_ENSMUST00000017276|mus_mus|FALSE|FALSE (ssRNA)
RNA: GGGAGUUCUACAGUCCGACGAUCUUUGUAUUUUGACAAAUAUUUUUUAAACAAAUACAAAAUAAUCUAAAAGGAGAAAAACUAUGUGUGGAUUAUUUACACCUCUGAUAAAUAGACUGACACUGAGCCAGGUGCUGGCCUGCCCAACAGAGGAUUGAGCAUCA
B11: chr10:84155644:84155645:+_ENSMUSG00000034453_ENSMUST00000077175|mus_mus|FALSE|FALSE (ssRNA)
RNA: GGGAGUUCUACAGUCCGACGAUCGCUGUAGCUCAUCACGGCAACAGUUGCGUUCUGGCCAGCCGGCAACUUCUCAAAAUCUAUCAACUCGAUUGUUUUUGUUUUAACCAUGGGCUUUUGUGGAUAUGCUAGUAGAUACAUAAGCAACAGAGGAUUGAGCAUCA
B12: 71544554_71545539_3271_CDS_ENSMUSG00000053470_ENSMUST00000065509|mouse|control|control (ssRNA)
RNA: GGGAGUUCUACAGUCCGACGAUCCCAGUCCUUAAGUUUCAACACCAUUGGUUCUUUUUCUUUGUCGUUUUUCAAACGGUUUGGAACAUCUUCAAAUCCAUCCCAGAAGUCUCCGACUGUGGCUCCAGUGAUGAUUUCAUUGGUCAACAGAGGAUUGAGCAUCA
B13: 90667016_90667136_1652_3pUTR_ENSG00000113369_ENST00000265138|human|control|control (ssRNA)
RNA: GGGAGUUCUACAGUCCGACGAUCCUUCAAGCAUGUUGGAGCAGUCUCAGAAUGUUGCUGUAGGCUUCUAAAGCAUGAUCACUGGUUGUUUCAUGUAUUCGCCAUUUUUCUGGGCAAAAGUAAUUCCACUUCCUCUGAAACGUGCAACAGAGGAUUGAGCAUCA

molecular target: T1, UNK ZnF1-3; assay: nsRBNS (natural sequence RNA bind-n-seq); RBNS binding buffer (assumed for nsRBNS): 25 mM Tris pH 7.5, 150 mM KCl, 3 mM MgCl2, 0.01% Triton X-100, 500 ug/ml BSA, 20 U/ml SUPERase-In, 4 C; UNK is unkempt and MSI1 is Musashi-1; names of the RNAs are library labels; protein concentration not given here; high values mean tight binding

Q: Which binding signal does the source give for B1 here?
A: 0.845 enrichment R

Q: Which binding signal does the source give for B2 here?
A: 1.71 enrichment R

Q: B3 was tested. Which binding signal did it give?
A: 0.899 enrichment R

Q: B4 was tested. Which binding signal did it give?
A: 1.72 enrichment R

Q: Which binding signal does the source give for B5 here?
A: 0.464 enrichment R

Q: How did the binding signal turn out when B6 was run?
A: 1.04 enrichment R

Q: For B7, which binding signal is on record?
A: 1.11 enrichment R

Q: With B8 as the binder, how does the binding signal read?
A: 0.738 enrichment R

Q: For B9, which binding signal is on record?
A: 1.32 enrichment R

Q: With B10 as the binder, how does the binding signal read?
A: 1.39 enrichment R

Q: With B11 as the binder, how does the binding signal read?
A: 0.902 enrichment R

Q: How did the binding signal turn out when B12 was run?
A: 0.364 enrichment R

Q: With B13 as the binder, how does the binding signal read?
A: 0.604 enrichment R
